The text below walks through data of publication PMC4336329 (PLoS ONE, 2015).

Structures are written as SMILES. Screen size: about 310,000 compounds; about 2,200 (0.71%) showed an effect of 50% or more. The effect is printed as a negative number. The list shows a part of the results.

The assay deals with human ether-à-go-go-related gene (hERG) potassium channel (human, UniProt Q12809). As to the kind of experiment: primary screen, population patch clamp on CHO cells stably expressing hERG.
Chain of human ether-à-go-go-related gene (hERG) potassium channel (Q12809 whole entry, looked up): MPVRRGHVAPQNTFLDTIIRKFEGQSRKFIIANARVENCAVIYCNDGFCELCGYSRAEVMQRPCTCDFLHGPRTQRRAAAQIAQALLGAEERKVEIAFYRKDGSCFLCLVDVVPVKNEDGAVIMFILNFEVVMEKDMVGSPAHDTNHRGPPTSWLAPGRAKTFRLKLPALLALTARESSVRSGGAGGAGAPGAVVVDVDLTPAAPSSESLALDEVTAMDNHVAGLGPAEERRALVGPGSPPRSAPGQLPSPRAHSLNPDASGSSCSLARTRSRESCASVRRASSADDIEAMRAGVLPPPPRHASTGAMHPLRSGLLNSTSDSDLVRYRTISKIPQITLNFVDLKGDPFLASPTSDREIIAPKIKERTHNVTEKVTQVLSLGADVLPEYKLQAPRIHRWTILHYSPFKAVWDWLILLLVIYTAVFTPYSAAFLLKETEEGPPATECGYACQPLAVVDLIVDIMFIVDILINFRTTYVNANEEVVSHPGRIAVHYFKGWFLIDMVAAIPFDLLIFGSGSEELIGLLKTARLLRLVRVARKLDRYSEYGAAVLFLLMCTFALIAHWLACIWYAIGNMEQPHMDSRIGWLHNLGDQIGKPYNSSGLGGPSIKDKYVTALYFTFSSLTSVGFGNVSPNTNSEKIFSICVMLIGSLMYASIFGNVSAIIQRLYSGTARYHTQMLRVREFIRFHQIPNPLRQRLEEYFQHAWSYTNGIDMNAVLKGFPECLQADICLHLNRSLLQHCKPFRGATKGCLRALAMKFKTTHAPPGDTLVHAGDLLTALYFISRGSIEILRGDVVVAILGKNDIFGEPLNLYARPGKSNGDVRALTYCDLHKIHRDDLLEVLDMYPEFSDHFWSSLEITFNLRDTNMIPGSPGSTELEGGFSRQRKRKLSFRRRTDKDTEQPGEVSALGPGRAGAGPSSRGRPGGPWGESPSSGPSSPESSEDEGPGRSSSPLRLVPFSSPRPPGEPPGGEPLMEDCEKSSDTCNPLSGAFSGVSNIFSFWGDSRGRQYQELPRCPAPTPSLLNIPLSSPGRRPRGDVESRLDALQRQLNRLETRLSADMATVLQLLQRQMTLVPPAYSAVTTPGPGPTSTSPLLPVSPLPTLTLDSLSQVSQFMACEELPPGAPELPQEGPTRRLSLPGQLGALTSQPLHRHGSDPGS
Consider `O=C(NN=C1CCCC1)c1[nH]c2ccc(Cl)cc2c1-c1ccccc1`, for which the “hERG current change (%, negative = inhibition) at 1uM” value turned out to be 8.8%. For `CCOC(=O)Cn1nc(C)n(-c2c(C)cccc2C)c1=O` the value was 13%. As for `CCOC(=O)c1cnc2cc(-c3ccc(C)cc3)nn2c1-c1ccccc1`, the figure is 9.73%; as for `Cc1cccc(C(=O)NCC(=O)Nc2ccncc2)c1`, -2.43%. For `Cc1nn(Cc2ccc(Cl)c(Cl)c2)c(C)c1NC(=O)c1cc(C2CC2)on1`, the “hERG current change (%, negative = inhibition) at 1uM” value was 4.2%. As for `CCNc1ccc(C(=O)OCC)cc1NC(=O)c1cc(S(=O)(=O)N2CCOCC2)ccc1C`, the figure is 3.02%; as for `Cc1ccc(S(=O)(=O)NNC(=O)CC#N)cc1`, 11%; as for `COc1cc(C(=O)OCC(=O)Nc2ccc3c(c2)OC(F)(F)O3)ccc1OCc1c(C)noc1C`, 3.96%. For `NC(=O)C1CCN(C(=O)CSc2nc3ccccc3s2)CC1` the value was 11.3%. As to `CCS(=O)(=O)Nc1ccc(C2=NN(C(=S)Nc3ccccc3)C(c3ccco3)C2)cc1` (centres unmarked), the “hERG current change (%, negative = inhibition) at 1uM” value is 4.29%. As to `O=C(NC1CC1)C1CCN(S(=O)(=O)c2cc([N+](=O)[O-])ccc2Cl)CC1`, the “hERG current change (%, negative = inhibition) at 1uM” value is reported as -8.17%. For `COC(=O)[C@H](Cc1ccccc1)NC(=O)O[C@@H]1C(=O)c2cc(Br)ccc2O[C@H]1c1cccc(OC)c1` the value was 9.8%; for `Cc1cccc(OCC(=O)NNC(=O)CCCCC(=O)NNC(=O)COc2cccc(C)c2)c1`, 7.11%. Take `CC(=O)c1ccc(NS(=O)(=O)c2ccc(-c3cnc(C4CC4)o3)cc2)cc1`: the “hERG current change (%, negative = inhibition) at 1uM” value is listed as 11.6%. As for `N#CC1=C(N)Oc2n[nH]c(-c3cccs3)c2C1c1cccnc1` (centres unmarked), the figure is 20.6%; as for `COc1ccc(NC(=O)Nc2ccccc2)cc1S(=O)(=O)N1CCCCC1`, 10.1%.

As to `CCOC(=O)c1c(/N=C/c2cccc(C)c2O)sc2c1CCN(C)C2`, the “hERG current change (%, negative = inhibition) at 1uM” value is 10.5%. For `O=C(CCCc1c[nH]c2ccccc12)NCc1ccccc1F` the value was 7.27%. Consider `CCCN1C(=O)c2ccc(C(=O)NCc3ccco3)cc2C1=O`, for which the “hERG current change (%, negative = inhibition) at 1uM” value was 0.339%. As for `CC(C)CN(C(=O)c1ccc2c(c1)OCCO2)c1c(N)n(Cc2ccccc2)c(=O)[nH]c1=O`, the figure is 7.13%; as for `COc1ccc(C(=O)c2cc3c(cc2[N+](=O)[O-])OCCO3)cc1`, 6.95%. For `COc1ccccc1C(=O)NCCc1c(C)[nH]c2c(C)ccc(F)c12` the value was 9.12%; for `COc1ccc(C(=O)NC(=S)N2CCCC2)cc1`, -2.18%; for `CCOC(=O)C1CCN(C(=O)c2cc3ccc(OC)cc3[nH]2)CC1`, 16.1%. Regarding `Cc1ccc2nc(-c3ccc(NC(=O)CN4CCN(c5ccccn5)CC4)cc3)sc2c1`, the “hERG current change (%, negative = inhibition) at 1uM” value was 12.6%. With `C=C(C)c1cccc(C(C)(C)NC(=O)N2CCN(c3ncccn3)CC2)c1`, the “hERG current change (%, negative = inhibition) at 1uM” value amounted to 5.23%. As for `COc1ccc(C(=O)/C=C/c2cccs2)c(OC(=O)c2cccc([N+](=O)[O-])c2)c1`, the figure is 5.76%; as for `CCCCN(CCCC)S(=O)(=O)c1ccc2[nH]c(=O)[nH]c2c1`, -4.52%. Take `NC(=O)c1ccsc1NC(=O)CSc1nnc(C2CC2)n1Cc1ccccc1`: the “hERG current change (%, negative = inhibition) at 1uM” value is reported as -3.14%. Consider `CCO[C@@H]1OC(C(=O)N2CCN(Cc3ccc4c(c3)OCO4)CC2)=C[C@H](c2coc3ccccc3c2=O)[C@H]1CCCO`, for which the “hERG current change (%, negative = inhibition) at 1uM” value was 9.29%. As for `Cc1nc2ccccc2c(=O)n1-c1ccc(NS(=O)(=O)c2cc(F)ccc2F)cc1`, the figure is 5%; as for `O=C(N/N=C/c1cn(CC(=O)N2CCOCC2)c2ccccc12)c1cccnc1`, 11.7%; as for `COc1ccc(Cl)cc1C(=O)NNC(=S)NC(=O)/C=C/c1ccco1`, 11%.

As to `C/C(=C\c1ccco1)C1C(C#N)=C(N)OC2=C1C(=O)CC(C)(C)C2` (centres unmarked), the “hERG current change (%, negative = inhibition) at 1uM” value is recorded as 7.43%.

Consider `O=C(NC1CCCCCC1)C1CCC(CNS(=O)(=O)c2ccc(Br)s2)CC1` (centres unmarked), for which the “hERG current change (%, negative = inhibition) at 1uM” value is listed as 12.5%.

Consider `COc1ccccc1N1CCN(C(c2cccs2)C(C)NC(=O)c2ccco2)CC1` (centres unmarked), for which the “hERG current change (%, negative = inhibition) at 1uM” value is 5.62%. For `Cc1ccc(-c2nc3cc(NC(=O)C(C)C)ccc3o2)cc1C` the value was 1.92%; for `CCOc1cc(S(=O)(=O)Nc2ccc(Cl)cn2)ccc1Cl`, 14.4%. As to `O=C(O)Cc1ccc(N=Nc2c(O)c(C(=O)O)cc3ccccc23)cc1`, the “hERG current change (%, negative = inhibition) at 1uM” value is recorded as 15.7%. For `COc1ccccc1C1C(C(C)=O)=C(O)C(=O)N1c1ccc(O)cc1` (centres unmarked) the value was 0.388%; for `COc1ccccc1NS(=O)(=O)c1ccc(NC(=O)c2[nH]nc(OC)c2[N+](=O)[O-])cc1`, 6.15%; for `CCc1ccc(CNC(=O)CCCn2c(=O)c3cccn3c3cccnc32)cc1`, 6.98%. For `COc1ccc(-c2nn(-c3ccccc3)cc2C(=O)O)cc1OC` the value was 17.1%.

`CCOC(=O)C1(Cc2cccc(OC)c2)CCN(Cc2cccc(OC)c2O)CC1`: the “hERG current change (%, negative = inhibition) at 1uM” value is listed as -22.8%.
